The list shows a part of the results. Most values come without repeats; read them as rough.
Legend:
Experiment in all cases: cell count relative to DMSO control; melanoma cells; higher = more viable cells
Conditions in all cases: library dose: low library concentration; 72 h
WM115 = system: WM115
WM1716 = system: WM1716
WM1745 = system: WM1745
WM3526 = system: WM3526
WM3619 = system: WM3619
WM451Lu = system: WM451Lu
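Further: cell number obtained by counting DAPI-stained nuclei in high-throughput microscope images with image analysis software, screen run in 1,536-well plates.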

SMILES	cell count (WM115)	cell count (WM1716)	cell count (WM1745)	cell count (WM3526)	cell count (WM3619)	cell count (WM451Lu)
C[As](C)SC[C@H](NC(=O)CC[C@H](N)C(=O)O)C(=O)NCC(=O)O [Darinaparsin] + COCC[n+]1c2c(n(Cc3cnccn3)c1C)C(=O)c1ccccc1C2=O [YM155] (first compound 0.4 µM, partner dose 0.0004 µM)	83.7%	82.6%	95%	80.4%	102%	77.3%
N.N.[Cl][Pt][Cl] [cisplatin] + COCC[n+]1c2c(n(Cc3cnccn3)c1C)C(=O)c1ccccc1C2=O [YM155] (first compound 1.6 µM, partner dose 0.0004 µM)	110%	100%	96.1%	111%	132%	71.7%
C[C@]12O[C@H](C[C@]1(O)CO)n1c3ccccc3c3c4c(c5c6ccccc6n2c5c31)CNC4=O [Lestaurtinib] + CCN(CC)CCCCNc1ncc2cc(-c3cc(OC)cc(OC)c3)c(NC(=O)NC(C)(C)C)nc2n1 [PD173074] (first compound 0.004 µM, partner dose 0.1 µM)	107%	94.3%	83.2%	75.4%	96%	113%
N.N.[Cl][Pt][Cl] [cisplatin] + CC1(C)NC(=O)N(c2ccc([N+](=O)[O-])c(C(F)(F)F)c2)C1=O [nilutamide] (first compound 1.6 µM, partner dose 1 µM)	93.8%	95%	127%	92.3%	117%	90%
Cn1cc(C2=C(c3cn(C4CCN(Cc5ccccn5)CC4)c4ccccc34)C(=O)NC2=O)c2ccccc21 [Enzastaurin] + COc1cc2c(Oc3ccc4[nH]c(C)cc4c3F)ncnc2cc1OCCCN1CCCC1 [cediranib] (first compound 0.8 µM, partner dose 0.4 µM)	109%	86.2%	79.8%	105%	102%	138%
Cn1cc(C2=C(c3cn(C4CCN(Cc5ccccn5)CC4)c4ccccc34)C(=O)NC2=O)c2ccccc21 [Enzastaurin] + O=C(O)C(=O)Nc1sc2c(c1C(=O)O)CCNC2 [TCS401] (first compound 0.8 µM, partner dose 1.66667 µM)	108%	101%	80.9%	100%	106%	131%
Cn1cc(C2=C(c3cn(C4CCN(Cc5ccccn5)CC4)c4ccccc34)C(=O)NC2=O)c2ccccc21 [Enzastaurin] + COc1ccc(C2=N[C@@H](c3ccc(Cl)cc3)[C@@H](c3ccc(Cl)cc3)N2C(=O)N2CCNC(=O)C2)c(OC(C)C)c1 [Nutlin-3] (first compound 0.8 µM, partner dose 0.1 µM)	108%	118%	79%	110%	109%	113%
Cn1cc(C2=C(c3cn(C4CCN(Cc5ccccn5)CC4)c4ccccc34)C(=O)NC2=O)c2ccccc21 [Enzastaurin] + C[C@@H]1CCN(C(=O)CC#N)C[C@@H]1N(C)c1ncnc2[nH]ccc12 [CP690550] (first compound 0.8 µM, partner dose 1 µM)	122%	111%	102%	93.3%	105%	146%
C[As](C)SC[C@H](NC(=O)CC[C@H](N)C(=O)O)C(=O)NCC(=O)O [Darinaparsin] + COc1cc(Nc2ncc(F)c(Nc3ccc4c(n3)NC(=O)C(C)(C)O4)n2)cc(OC)c1OC [Tamatinib] (first compound 0.4 µM, partner dose 0.4 µM)	74.5%	93.9%	63.9%	90.7%	72%	92.3%
Cn1cc(C2=C(c3cn(C4CCN(Cc5ccccn5)CC4)c4ccccc34)C(=O)NC2=O)c2ccccc21 [Enzastaurin] + O=c1cc(-c2cccc3c2Sc2ccccc2S3)oc(N2CCOCC2)c1 [KU55933] (first compound 0.8 µM, partner dose 1 µM)	116%	100%	75.6%	108%	104%	129%
C[C@]12O[C@H](C[C@]1(O)CO)n1c3ccccc3c3c4c(c5c6ccccc6n2c5c31)CNC4=O [Lestaurtinib] + NC(=O)Nc1cc(-c2cccc(F)c2)sc1C(=O)N[C@H]1CCCNC1 [AZD7762] (first compound 0.004 µM, partner dose 0.02 µM)	94.4%	84.8%	81.9%	67.7%	57%	132%
C[C@]12O[C@H](C[C@]1(O)CO)n1c3ccccc3c3c4c(c5c6ccccc6n2c5c31)CNC4=O [Lestaurtinib] + Oc1nc(-c2ccc(C(F)(F)F)cc2)nc2c1CSCC2 [XAV939] (first compound 0.004 µM, partner dose 2 µM)	95.2%	67.4%	73.2%	84.9%	90.9%	115%
N.N.[Cl][Pt][Cl] [cisplatin] + C[C@@H](Oc1cc(-c2cnn(C3CCNCC3)c2)cnc1N)c1c(Cl)ccc(F)c1Cl [Crizotinib] (first compound 1.6 µM, partner dose 0.2 µM)	98.5%	114%	102%	103%	129%	89.8%
Cn1cc(C2=C(c3cn(C4CCN(Cc5ccccn5)CC4)c4ccccc34)C(=O)NC2=O)c2ccccc21 [Enzastaurin] + Clc1ccc(Nc2nnc(Cc3ccncc3)c3ccccc23)cc1 [vatalanib] (first compound 0.8 µM, partner dose 2 µM)	114%	92.9%	105%	105%	103%	65.4%
Cn1cc(C2=C(c3cn(C4CCN(Cc5ccccn5)CC4)c4ccccc34)C(=O)NC2=O)c2ccccc21 [Enzastaurin] + CN(NC(=O)CC(=O)NN(C)C(=S)c1ccccc1)C(=S)c1ccccc1 [STA4783] (first compound 0.8 µM, partner dose 0.006 µM)	103%	76.7%	26.9%	106%	45.1%	108%
Cn1cc(C2=C(c3cn(C4CCN(Cc5ccccn5)CC4)c4ccccc34)C(=O)NC2=O)c2ccccc21 [Enzastaurin] + Cc1cc(N2CCOCC2)cc2[nH]c(-c3c(NC[C@@H](O)c4cccc(Cl)c4)cc[nH]c3=O)nc12 [BMS536924] (first compound 0.8 µM, partner dose 0.2 µM)	118%	108%	75.8%	96.5%	94%	115%
Cn1cc(C2=C(c3cn(C4CCN(Cc5ccccn5)CC4)c4ccccc34)C(=O)NC2=O)c2ccccc21 [Enzastaurin] + O=C(Oc1ccc([N+](=O)[O-])cc1)N1CCC(C(O)(c2ccc3c(c2)OCO3)c2ccc3c(c2)OCO3)CC1 [JZL184] (first compound 0.8 µM, partner dose 1 µM)	119%	102%	94.8%	98.8%	88.5%	110%
C[As](C)SC[C@H](NC(=O)CC[C@H](N)C(=O)O)C(=O)NCC(=O)O [Darinaparsin] + COC(=O)c1sccc1S(=O)(=O)Nc1ccc(Nc2ccccc2)cc1OC [GSK0660] (first compound 0.4 µM, partner dose 1 µM)	101%	87.9%	111%	102%	114%	97.4%
N.N.[Cl][Pt][Cl] [cisplatin] + Cn1cncc1[C@@](N)(c1ccc(Cl)cc1)c1ccc2c(c1)c(-c1cccc(Cl)c1)cc(=O)n2C [tipifarnib] (first compound 1.6 µM, partner dose 0.01 µM)	96.6%	85.6%	95%	87.6%	108%	90.3%
Cn1cc(C2=C(c3cn(C4CCN(Cc5ccccn5)CC4)c4ccccc34)C(=O)NC2=O)c2ccccc21 [Enzastaurin] + C[C@@H](Oc1cc(-c2cnn(C3CCNCC3)c2)cnc1N)c1c(Cl)ccc(F)c1Cl [Crizotinib] (first compound 0.8 µM, partner dose 0.2 µM)	115%	97.2%	103%	109%	105%	99.1%
N.N.[Cl][Pt][Cl] [cisplatin] + C=C(c1ccc(C(=O)O)cc1)c1cc2c(cc1C)C(C)(C)CCC2(C)C [Bexarotene] (first compound 1.6 µM, partner dose 2 µM)	102%	95.9%	108%	85.6%	116%	89.4%
N.N.[Cl][Pt][Cl] [cisplatin] + CN(C)S(=O)(=O)c1ccc2c(c1)/C(=C/c1cc3c([nH]1)CCCC3)C(=O)N2 [SU6656] (first compound 1.6 µM, partner dose 0.4 µM)	80.1%	107%	95.1%	85.8%	103%	88.3%
N.N.[Cl][Pt][Cl] [cisplatin] + O=C(O)c1ccc2c(c1)nc(Nc1cccc(Cl)c1)c1ccncc12 [CX4945] (first compound 1.6 µM, partner dose 0.4 µM)	118%	91.5%	98.7%	137%	81.9%	114%
C[C@]12O[C@H](C[C@]1(O)CO)n1c3ccccc3c3c4c(c5c6ccccc6n2c5c31)CNC4=O [Lestaurtinib] + C/C(O)=C(\C#N)C(=O)Nc1cc(Br)ccc1Br [LFM-A13] (first compound 0.004 µM, partner dose 2 µM)	106%	93.8%	86.7%	78.4%	87.5%	150%
N.N.[Cl][Pt][Cl] [cisplatin] + Oc1cc(-c2nc(-c3ccccc3)[nH]c2-c2ccncc2)ccc1Cl [L779450] (first compound 1.6 µM, partner dose 0.2 µM)	101%	97.4%	85.7%	96.3%	84.1%	93.9%
